From PubChem BioAssay (Tox21)
Values joined by “and” are separate entries in the source; they are usually repeats but may differ in a detail not shown here. Equal entries are not always repeated. This list was built around the results that the source calls inconclusive (neither active nor inactive); the mix of calls is not that of the screen. A potency beside an inconclusive call is a rough fit, not a confirmed value. The source holds several records for some structures; these can differ, active in one and inactive in another. Active and inactive are the calls of the source. Unless noted, the call rests on the fitted dose curve.

Experiment: qHTS assay to identify small molecule agonists of H2AX (AID 1224845; active means well fitted activation curve with a large enough effect in the signal ratio in the repeat runs, not every such curve was filed as active; inconclusive means weak or mixed curves; the % refers to the signal ratio)
Settings: CHO-K1 phospho-H2AX Ser139 HTRF, 3 h; activation (H2AX phosphorylation): at 154 µM (top of the series) unless noted
Summary of the method: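 Wild-type CHO-K1 cells, plated overnight, exposed 3hr at 37C to 15 concentrations (0.76% DMSO final). Lysed, then HTRF anti-pH2AX (S139) cryptate and anti-H2AX-d2 antibodies, 24 hr room temperature; 665/620 nm emission read.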
On the % scale 0 is the no-effect control and ±100 the full control effect; potency means the concentration at half of the fitted maximal effect; tags describe the fitted curve by direction and shape or compound fluorescence and quenching.

Row | SMILES | activation (H2AX phosphorylation) | Potency
1 | O=C(OCC1(COC(=O)c2cccnc2)CCCC(COC(=O)c2cccnc2)(COC(=O)c2cccnc2)C1O)c1cccnc1 | inactive: -0.0362% [at 70.9 µM] | –
2 | CC[N+](CC)(CC(=O)Nc1c(C)cccc1C)Cc1ccccc1 (tested in a mixture with another compound) | inactive: -2.72% [at 70.9 µM] | –
3 | c1ccc2cnncc2c1 | inactive: -0.267% | –
4 | C=CCOC(=O)CC(C)C | – | inactive
5 | COc1ccc(-c2cc(=O)c3c(O)cc(O[C@@H]4O[C@H](CO[C@@H]5O[C@@H](C)[C@H](O)[C@@H](O)[C@H]5O)[C@@H](O)[C@H](O)[C@H]4O)cc3o2)cc1O | – | inconclusive: 49.2 µM [falling, partial curve]
6 | C=COCCCCO | inactive: 0.52% | –
7 | CN(C)CCCN1c2ccccc2Sc2ccccc21 | – | inconclusive: 61.9 µM [falling, single point]
8 | CCc1c2c(nc3ccc(OC(=O)N4CCC(N5CCCCC5)CC4)cc13)-c1cc3c(c(=O)n1C2)COC(=O)[C@]3(O)CC | – | inconclusive: 61.9 µM [fluorescent]
9 | O=C1c2cccc(O)c2C(=O)c2c(O)cc(CO)cc21 | inactive: 6.49% | –
10 | O=C(C1CCCCC1)N1CC(=O)N2CCc3ccccc3C2C1 (stereo not given) | – | inactive
11 | CN(C)[C@@H]1C(=O)C(C(=O)NCN2CCCC2)=C(O)[C@@]2(O)C(=O)C3=C(O)c4c(O)cccc4[C@@](C)(O)C3C[C@@H]12 (stereo not given in full) | – | inconclusive: 24.7 µM [falling, full curve]
12 | O=S(=O)(O)c1cc(I)c(O)c2ncccc12 | – | inconclusive: 24.7 µM [falling, partial curve]

Experiment: qHTS assay to identify small molecule agonists of the hypoxia (HIF-1) signaling pathway (AID 1224846; active means well fitted activation curve with a large enough effect in the signal ratio in the repeat runs, not every such curve was filed as active; inconclusive means weak or mixed curves; the % refers to the signal ratio)
Settings: HRE-bla ME-180 cells, beta-lactamase ratio, 17 h; activation: at 76.8 µM (top of the series) unless noted
Summary of the method: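 Cell line: CellSensor HRE-bla ME-180; 2,000 cells/well; 0.5% dialyzed FBS; 5 h preincubation; DMSO compound pin transfer; 17 h, 37C, 5% CO2; CCF4-AM added; bla FRET signal scored for activation.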

Row | SMILES | Potency | activation
13 | CC(C)(C)[C@@H](O)[C@@H](Cc1ccc(Cl)cc1)n1cncn1 | inactive | –
14 | CC(C)(C)C1CCCCC1O (stereo not given) | – | inactive: -2.08%
15 | COc1ccc(-c2cc(=O)c3c(O)cc(O[C@@H]4O[C@H](CO[C@@H]5O[C@@H](C)[C@H](O)[C@@H](O)[C@H]5O)[C@@H](O)[C@H](O)[C@H]4O)cc3o2)cc1O | – | inactive: -1.1% [at 35.5 µM]
16 | CCCCCCCCCCCCOCCOS(=O)(=O)O | inconclusive: 61.6 µM [falling, single point] | –
17 | CCCCCCCCCCCCCCOS(=O)(=O)O | inconclusive: 61.6 µM [single point] | –
18 | O=C(O)C(Cc1cc(I)c(O)c(I)c1)c1ccccc1 (stereo not given) | inconclusive: 10.7 µM [falling, partial curve, poor fit] | –
19 | COc1ccc2c(c1)c(CC(=O)O)c(C)n2C(=O)c1ccc(Cl)cc1 | inconclusive: 24.5 µM [rising, full curve, poor fit] | –
20 | CC1=CC(=O)/C(=C(/C)O)C(=O)O1 | – | inactive: 2.9%
21 | CCc1c2c(nc3ccc(OC(=O)N4CCC(N5CCCCC5)CC4)cc13)-c1cc3c(c(=O)n1C2)COC(=O)[C@]3(O)CC | – | inactive: 0.529% [at 35.5 µM]
22 | Cc1ccc(S(=O)(=O)N=C=O)cc1 | inactive | –
23 | CC(C)(C)C(=O)CCc1ccc(Cl)cc1 | – | inactive: -0.495%
24 | Cc1c(N)cccc1[N+](=O)[O-] | – | inactive: 0.0605%
25 | C1=C\CC/C=C\CC/C=C\CC/1 | – | inactive: -0.896%

Experiment: qHTS assay to identify small molecule agonists of H2AX - cell viability counter screen (AID 1224847); further: nearly all actives have a fitted effect of over 30% in size; on activity change, negative = cytotoxicity: top concentration of the series differs between compounds
Settings: CHO-K1 viability, CellTiter-Glo luminescence, 3 h; series mostly up to 154 µM; activity change, negative = cytotoxicity: at the top concentration
Summary of the method: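 For this counter screen, overnight-attached CHO-K1 cells received test compounds (15 concentrations, 0.76% DMSO final); 3 hr later at 37C, CellTiter-Glo reagent was added and luminescence recorded after 30 min at room temperature.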

Row | SMILES | activity change, negative = cytotoxicity | Potency
26 | C=CC(=C)CC/C=C(\C)CCC=C(C)C | inactive: 2.41% [at 31.6 µM] | –
27 | CCCCCCCCCCCCCCOS(=O)(=O)O | inactive: -9.61% | –
28 | CC1=CC(=O)/C(=C(/C)O)C(=O)O1 | inactive: 2.89% | –
29 | CN(C)Cc1cc(CN(C)C)c(O)c(CN(C)C)c1 | – | inactive
30 | CC(C)(N)C#N | inactive: 2.22% | –
31 | COC(=O)c1ccc(I)cc1S(=O)(=O)NC(=O)Nc1nc(C)nc(OC)n1 | inactive: 1.41% | –
32 | CCCNCC(O)COc1ccccc1C(=O)CCc1ccccc1 (stereo not given) | – | inconclusive: 61.9 µM [cytotoxic, partial curve, poor fit]
33 | O=C1Nc2ccc([N+](=O)[O-])cc2C1=O | inactive: -6.14% | –
34 | O=C(Nc1ccc([N+](=O)[O-])cc1)Nc1ccc([N+](=O)[O-])cc1 (tested in a mixture with another compound) | – | active: 17.5 µM
35 | O=C(C1CCCCC1)N1CC(=O)N2CCc3ccccc3C2C1 (stereo not given) | – | inactive
36 | C#CCN[C@@H]1CCc2ccccc21 | inactive: 0.132% [at 70.9 µM] | –
37 | CC1CCCCC1 | inactive: 2.3% | –

Experiment: qHTS assay to identify small molecule antagonists of the estrogen related receptor (ERR) signaling pathway from Tox21 library (AID 1224848; active means well fitted inhibition curve with a large enough effect in the repeat runs; inconclusive means weak or mixed curves; inactive means no such curve, though single readings can be large or run the other way; further: nearly all actives have a fitted effect of over 50% in size)
Settings: ERR reporter cell line, luciferase antagonist mode, 18 h; series mostly up to 92.4 µM; activity, negative = inhibition: at the top concentration
Summary of the method: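 ERR reporter cell line (from NTP) seeded 2,000 cells/well, rested 6 h at 37 C/5% CO2, then pin-dosed with compounds in DMSO. After 18 h at 37 C, ONE-Glo added; luminescence read after 30 min at room temperature.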

Row | SMILES | Potency | activity, negative = inhibition
38 | CCCCCCCCCCCCOCCOS(=O)(=O)O | inconclusive: 43.3 µM [inhibitor, partial curve] | –
39 | CCCCCCCCCCCCCCOS(=O)(=O)O | inconclusive: 68.6 µM [inhibitor] | –
40 | COc1ccc2c(c1)c(CC(=O)O)c(C)n2C(=O)c1ccc(Cl)cc1 | active: 30.8 µM and inconclusive: 34.4 µM [inhibitor, partial curve] and inactive | –
41 | C=COCCCCO | inconclusive: 30.6 µM [inhibitor, partial curve] | –
42 | CC(C)(C)C(=O)CCc1ccc(Cl)cc1 | – | inactive: 3.67%
43 | O=C1c2cccc(O)c2C(=O)c2c(O)cc(CO)cc21 | inconclusive: 68.6 µM [inhibitor, single point] | –
44 | O=C(C1CCCCC1)N1CC(=O)N2CCc3ccccc3C2C1 (stereo not given) | inconclusive: 43.2 µM [inhibitor, partial curve] | –
45 | O=C(CCC1CCN(Cc2ccccc2)CC1)c1ccc2c(c1)NCCCC2 | active: 18.8 µM | –
